From the supplement of paper PMC3334620
Over roughly 33,000 sequences, “E-score (-0.5 to 0.5)” has its median near -0.012; the highest 2% begin near 0.27. This is one part of the list.

Target: T1, Vhr1 (UniProt P40522)
T1 sequence: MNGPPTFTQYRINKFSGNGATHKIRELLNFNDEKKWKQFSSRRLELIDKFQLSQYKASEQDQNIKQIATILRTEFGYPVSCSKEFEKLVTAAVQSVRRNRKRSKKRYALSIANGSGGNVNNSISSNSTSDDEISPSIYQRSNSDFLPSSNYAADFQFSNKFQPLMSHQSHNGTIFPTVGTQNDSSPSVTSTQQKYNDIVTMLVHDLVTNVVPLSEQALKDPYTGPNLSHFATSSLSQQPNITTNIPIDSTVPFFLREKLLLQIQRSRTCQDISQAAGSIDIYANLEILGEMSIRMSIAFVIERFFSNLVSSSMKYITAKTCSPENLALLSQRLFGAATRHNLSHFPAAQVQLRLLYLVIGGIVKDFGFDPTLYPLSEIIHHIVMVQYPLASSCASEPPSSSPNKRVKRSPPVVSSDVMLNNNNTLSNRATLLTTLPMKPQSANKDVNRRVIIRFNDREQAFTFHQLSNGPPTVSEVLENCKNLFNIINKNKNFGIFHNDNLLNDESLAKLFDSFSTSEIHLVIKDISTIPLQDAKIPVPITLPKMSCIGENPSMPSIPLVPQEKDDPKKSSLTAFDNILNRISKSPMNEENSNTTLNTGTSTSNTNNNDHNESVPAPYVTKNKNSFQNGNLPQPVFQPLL
Assay: PBM E-score (8-mer binding enrichment) (E-score (-0.5 to 0.5)); higher = stronger / more preferred TF binding; most listed sequences are background and not binding sites
Conditions: protein concentration: 200 nM; construct: GST-full length
Outline: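 Each ungapped eight-base word and its reverse complement, pooled, received an E-score from the Universal PBM Analysis Suite. Underlying scans, normalised with masliner, recorded fluorescent anti-GST bound to GST-tagged yeast transcription factors. These were applied at about 100-200 nM to universal all-10-mer Agilent arrays double-stranded by primer extension.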

| Sequence | PBM E-score |
| --- | --- |
| AGCCGCCC | 0.0712 |
| CTATACTC | 0.164 |
| CTCGCGGC | 0.134 |
| AGAAGGCT | -0.344 |
| GGGAGTGA | 0.0808 |
| CCTGACCC | 0.0869 |
| TACGGTAA | -0.185 |
| CAGCGCTA | 0.00815 |
| CTAACCAA | 0.178 |
| CAGGGTAC | -0.118 |
| CAGCCGGC | -0.00649 |
| AACCCGAT | 0.0738 |
| CCGTAGTA | -0.0102 |
| GGCTTCAA | -0.235 |
| ATACTGAT | 0.155 |
| GCTGAACA | -0.00858 |
| CCTCGAAG | -0.0314 |
| ATAAAGTC | 0.107 |
| AGGTTATA | -0.0713 |
| CCTGAAAG | -0.141 |
| AGGCAACG | -0.113 |
| GATTGGTA | 0.178 |
| CTTTGTGA | 0.00044 |
| CCTTCTCA | -0.0633 |
| AGCTTTGA | -0.0613 |

| Sequence | PBM E-score |
| --- | --- |
| CGGAAGTC | 0.0873 |
| ACCCGGCC | -0.241 |
| AAAGAGTA | -0.174 |
| GCGCGCGC | 0.379 |
| GGCCCTAC | -0.191 |
| GACCCCTC | -0.0392 |
| GACCACAC | 0.0574 |
| AGGTGTCC | 0.0962 |
| AAGAAAGT | -0.0406 |
| GGTCATCA | 0.136 |
| ACTCACGC | 0.366 |
| CATCGTAA | 0.184 |
| ACTCTATA | 0.0821 |
| GTGCAATA | -0.0141 |
| AAATGCGC | 0.168 |
| GACCCATA | 0.251 |
| GATAATGA | 0.0842 |
| AACCGTTA | -0.0869 |
| AACCGCCG | 0.119 |
| AACAGGAC | 0.084 |
| AGACAATG | -0.0688 |
| GAGCTACA | -0.168 |
| CATATATA | 0.256 |
| AGGGACCC | -0.215 |
| CCTGAGAC | 0.014 |

| Sequence | PBM E-score |
| --- | --- |
| ACGATCGG | -0.0237 |
| CGCCGTTC | -0.0909 |
| TCCTTTCA | -0.122 |
| AGTAAAGC | -0.0939 |
| AGATAAGC | -0.091 |
| CGTAAGTA | -0.127 |
| CCCAAAGG | -0.127 |
| CTCACATC | 0.124 |
| AGTAAGCC | -0.116 |
| AAGGTCTG | 0.0962 |
| ATTTCGCA | 0.074 |
| CCAATTCG | -0.173 |
| CCTCTTAA | -0.0311 |
| CATTGCTA | 0.00135 |
| CCACTACA | 0.0708 |
| AGGGAGAA | -0.106 |
| CAACCAAA | 0.137 |
| AACTCTAC | -0.213 |
| ACAAGTAG | 0.0126 |
| AGACGTTC | -0.178 |
| ATGCGCCA | 0.0153 |
| ACCTAAAG | -0.258 |
| GTCAAGAC | -0.0573 |
| CCAAACCG | 0.157 |
| GCTCCGAC | 0.0683 |

| Sequence | PBM E-score |
| --- | --- |
| ATCTGGGC | -0.0127 |
| ATTCTGCA | 0.0255 |
| GCAGTCCA | 0.0282 |
| ATTGTGGG | 0.156 |
| AGCGCGAT | 0.121 |
| CTTATCGC | -0.0118 |
| TGGCACCA | -0.205 |
| GACCGCAC | -0.0239 |
| ACGGTTCC | 0.0377 |
| ACTCCGTA | 0.0628 |
| AGACCAGC | -0.133 |
| CAAGATAA | 0.0275 |
| ATATGTAA | -0.0851 |
| ATAATGGG | 0.163 |
| CGGACGAC | 0.154 |
| ATCGACTA | 0.0457 |
| TATCAGCA | 0.0946 |
| CAAGATGA | 0.115 |
| ACCCAAGG | 0.095 |
| TAACGGGA | -0.0715 |
| ACGGAACT | -0.0293 |
| AGAGATCA | -0.169 |
| CTGTAATC | 0.0295 |
| ATCGAAAT | 0.0284 |
| CAAGTTCG | -0.0825 |

| Sequence | PBM E-score |
| --- | --- |
| CAGGTTTA | 0.106 |
| ATGAGAAA | -0.227 |
| TAAGACGA | -0.192 |
| AGCGATGA | 0.167 |
| AATAAGCC | -0.0921 |
| ACTGGTCT | -0.128 |
| CGCAGTTA | -0.0699 |
| CCGCCTGA | 0.171 |
| ATGAGCAT | 0.0955 |
| GAATCACC | 0.392 |
| GTATCGCA | -0.0516 |
| CGGGACCG | -0.0295 |
| ACTAGACT | 0.00957 |
| AGTGTCAA | 0.0559 |
| CAGATATC | 0.24 |
| ACGGTGCC | -0.0596 |
| ACAAAGTC | -0.00877 |
| CCGCTGAC | 0.0403 |
| AGTGAAAA | -0.0597 |
| ACCTAGGT | 0.0622 |
| CCCGCACG | 0.0854 |
| CGTCGGAG | 0.0698 |
| GGGCGCCC | 0.249 |
| CACGTCTC | -0.16 |
| ATAAACCG | 0.144 |

| Sequence | PBM E-score |
| --- | --- |
| CTAATGCA | -0.00665 |
| ACCCTTTC | -0.147 |
| ACAGACGC | -0.0186 |
| GAACGTGA | -0.00628 |
| GCCTCGTA | -0.0631 |
| CACCTGCA | 0.0182 |
| GTAGCCGA | -0.05 |
| CATGCTAA | -0.0194 |
| GACGCTCC | -0.1 |
| AACCGACC | 0.13 |
| ATGCTGAG | 0.0978 |
| CAACGCAG | -0.00574 |
| GAATAACC | -0.147 |
| GCCTGAAA | -0.0217 |
| GCGCACCC | 0.172 |
| ACACACGG | 0.155 |
| CTGTCAAG | -0.135 |
| GCTTTACC | -0.122 |
| CCTCAAAA | -0.153 |
| CTGACAAG | -0.0585 |
| GGAACCCC | -0.198 |
| GGCCTACC | -0.0215 |
| TAACTGGA | -0.123 |
| GCCGTGCA | -0.0556 |
| CCTCGTAC | 0.00947 |

| Sequence | PBM E-score |
| --- | --- |
| AACTTTTA | -0.191 |
| ATGAGTAC | 0.347 |
| CCTAGGTC | 0.0186 |
| ATCAAAAG | -0.182 |
| AAGACGCC | 0.0274 |
| CTAATATA | -0.0362 |
| AGGCCAGG | -0.0837 |
| CAGAGTGG | -0.0459 |
| AGAAACAG | -0.128 |
| AGACGCCT | -0.223 |
| GATTACCA | 0.173 |
| CATTAGGG | -0.198 |
| AAAGTAGT | 0.0363 |
| ACGTAGTG | -0.0677 |
| TCAATCGA | 0.156 |
| ATCCCAAA | -0.2 |
| CCAGGCCC | -0.0629 |
| ATTGCCCC | -0.107 |
| CCTACTAC | -0.0741 |
| ACATCACA | 0.113 |
| GCGTCAGA | -0.153 |
| GCCGATTA | 0.0479 |
